Source: PMC10514306, “The CBL1/9-CIPK1 calcium sensor negatively regulates drought stress by phosphorylating the PYLs ABA receptor” (Nature Communications, 2023)
No constants are given. Whether binding was seen depends on the method and setting. In cells and extracts the contact can be indirect. Some binding calls cover weakened binding; strength is not graded here. Tags and fused reporters may be left off the sequences shown.

The chains behind the UniProt entries cited, without tags or fusion partners.
UniProt P05804: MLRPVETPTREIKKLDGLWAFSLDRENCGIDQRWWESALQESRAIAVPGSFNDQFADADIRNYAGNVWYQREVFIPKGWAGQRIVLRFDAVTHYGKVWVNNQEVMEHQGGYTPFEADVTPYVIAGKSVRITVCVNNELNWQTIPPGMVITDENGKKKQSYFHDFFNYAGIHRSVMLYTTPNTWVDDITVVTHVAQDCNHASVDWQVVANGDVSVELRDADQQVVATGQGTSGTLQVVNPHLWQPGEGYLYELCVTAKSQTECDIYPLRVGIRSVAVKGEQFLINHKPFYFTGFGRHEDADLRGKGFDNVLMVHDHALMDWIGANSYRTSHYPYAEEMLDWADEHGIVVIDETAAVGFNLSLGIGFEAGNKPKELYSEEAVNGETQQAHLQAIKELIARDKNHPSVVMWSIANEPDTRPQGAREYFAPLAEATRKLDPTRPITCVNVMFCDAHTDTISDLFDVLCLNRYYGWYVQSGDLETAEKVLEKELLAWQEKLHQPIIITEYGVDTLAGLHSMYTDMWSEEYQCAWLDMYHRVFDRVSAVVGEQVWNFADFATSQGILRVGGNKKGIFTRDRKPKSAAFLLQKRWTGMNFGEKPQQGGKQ

Assays:
Assay in all cases: split reporter; split-luciferase complementation (LCI): CIPK1-nLUC and PYR1/PYLs-cLUC co-injected into N. benthamiana leaves, signal read after 72 h with a CCD camera
GUS-cLUC = GUS-cLUC (UniProt P05804)
[1] = target: T1, OST1 (LCI fusion) (Arabidopsis) (UniProt Q940H6)
T1 sequence: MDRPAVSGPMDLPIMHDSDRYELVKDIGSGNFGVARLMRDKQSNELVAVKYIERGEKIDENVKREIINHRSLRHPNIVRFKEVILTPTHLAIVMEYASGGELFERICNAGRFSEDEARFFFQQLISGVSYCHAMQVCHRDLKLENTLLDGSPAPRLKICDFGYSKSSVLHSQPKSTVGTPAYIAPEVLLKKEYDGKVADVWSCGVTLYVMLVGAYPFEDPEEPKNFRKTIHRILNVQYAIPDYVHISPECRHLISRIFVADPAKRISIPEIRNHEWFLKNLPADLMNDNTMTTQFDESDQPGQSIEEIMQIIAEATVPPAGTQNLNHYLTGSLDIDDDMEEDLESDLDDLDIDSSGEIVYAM

PYL12-cLUC (Arabidopsis) = target: T2, PYL12-cLUC (Arabidopsis) (UniProt Q9FJ49)
T2 sequence: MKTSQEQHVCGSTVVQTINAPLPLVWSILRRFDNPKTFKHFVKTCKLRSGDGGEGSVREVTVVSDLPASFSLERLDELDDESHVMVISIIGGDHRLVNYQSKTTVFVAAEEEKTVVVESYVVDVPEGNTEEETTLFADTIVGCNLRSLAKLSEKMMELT

PYL13-cLUC (Arabidopsis) = target: T3, PYL13-cLUC (Arabidopsis) (UniProt Q9SN51)
T3 sequence: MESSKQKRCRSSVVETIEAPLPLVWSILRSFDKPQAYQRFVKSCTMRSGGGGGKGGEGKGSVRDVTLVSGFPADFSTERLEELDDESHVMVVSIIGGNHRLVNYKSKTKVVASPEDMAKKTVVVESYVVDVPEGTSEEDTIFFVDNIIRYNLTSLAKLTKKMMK

PYL2-cLUC (Arabidopsis) = target: T4, PYL2-cLUC (Arabidopsis) (UniProt O80992)
T4 sequence: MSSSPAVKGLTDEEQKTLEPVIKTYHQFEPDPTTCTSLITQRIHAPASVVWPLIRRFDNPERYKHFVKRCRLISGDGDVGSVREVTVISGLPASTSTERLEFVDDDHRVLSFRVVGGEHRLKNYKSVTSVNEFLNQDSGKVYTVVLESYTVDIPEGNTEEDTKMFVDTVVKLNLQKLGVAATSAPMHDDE

PYL3-cLUC (Arabidopsis) = target: T5, PYL3-cLUC (Arabidopsis) (UniProt Q9SSM7)
T5 sequence: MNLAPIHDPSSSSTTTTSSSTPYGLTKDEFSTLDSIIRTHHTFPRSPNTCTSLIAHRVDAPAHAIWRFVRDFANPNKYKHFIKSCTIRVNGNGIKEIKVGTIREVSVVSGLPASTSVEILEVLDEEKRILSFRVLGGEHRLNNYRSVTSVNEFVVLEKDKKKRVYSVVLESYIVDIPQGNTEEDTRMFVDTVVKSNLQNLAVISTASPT

PYL5-cLUC (Arabidopsis) = target: T6, PYL5-cLUC (Arabidopsis) (UniProt Q9FLB1)
T6 sequence: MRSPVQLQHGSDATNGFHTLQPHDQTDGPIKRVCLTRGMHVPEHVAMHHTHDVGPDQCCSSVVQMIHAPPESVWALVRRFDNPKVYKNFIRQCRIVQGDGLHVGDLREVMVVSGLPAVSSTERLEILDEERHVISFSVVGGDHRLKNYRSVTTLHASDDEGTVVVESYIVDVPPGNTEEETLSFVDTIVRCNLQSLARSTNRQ

PYL6-cLUC (Arabidopsis) = target: T7, PYL6-cLUC (Arabidopsis) (UniProt Q8S8E3)
T7 sequence: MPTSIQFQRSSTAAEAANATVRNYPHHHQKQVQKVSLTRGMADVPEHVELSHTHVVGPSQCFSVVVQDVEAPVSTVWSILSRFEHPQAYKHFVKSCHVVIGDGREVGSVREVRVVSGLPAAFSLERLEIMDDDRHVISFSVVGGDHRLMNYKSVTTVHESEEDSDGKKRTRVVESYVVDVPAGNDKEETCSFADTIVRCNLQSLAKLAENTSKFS

PYL7-cLUC (Arabidopsis) = target: T8, PYL7-cLUC (Arabidopsis) (UniProt Q1ECF1)
T8 sequence: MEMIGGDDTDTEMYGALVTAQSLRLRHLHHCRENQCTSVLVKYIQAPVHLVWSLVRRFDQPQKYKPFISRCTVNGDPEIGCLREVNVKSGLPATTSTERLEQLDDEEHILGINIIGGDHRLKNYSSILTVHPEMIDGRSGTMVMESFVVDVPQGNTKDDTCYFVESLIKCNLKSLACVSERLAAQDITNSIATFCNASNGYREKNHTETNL

PYL8-cLUC (Arabidopsis) = target: T9, PYL8-cLUC (Arabidopsis) (UniProt Q9FGM1)
T9 sequence: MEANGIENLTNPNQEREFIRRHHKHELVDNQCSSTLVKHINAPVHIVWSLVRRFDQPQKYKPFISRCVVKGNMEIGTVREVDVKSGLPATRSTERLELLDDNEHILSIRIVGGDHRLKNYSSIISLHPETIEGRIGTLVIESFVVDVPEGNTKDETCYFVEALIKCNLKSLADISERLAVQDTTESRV

B1: CIPK1-nLUC (enzyme, UniProt Q8RWC9 1-444)
chain: MVRRQEEEKKAEKGMRLGKYELGRTLGEGNFGKVKFAKDTVSGHSFAVKIIDKSRIADLNFSLQIKREIRTLKMLKHPHIVRLHEVLASKTKINMVMELVTGGELFDRIVSNGKLTETDGRKMFQQLIDGISYCHSKGVFHRDLKLENVLLDAKGHIKITDFGLSALPQHFRDDGLLHTTCGSPNYVAPEVLANRGYDGAASDIWSCGVILYVILTGCLPFDDRNLAVLYQKICKGDPPIPRWLSPGARTMIKRMLDPNPVTRITVVGIKASEWFKLEYIPSIPDDDDEEEVDTDDDAFSIQELGSEEGKGSDSPTIINAFQLIGMSSFLDLSGFFEQENVSERRIRFTSNSSAKDLLEKIETAVTEMGFSVQKKHAKLRVKQEERNQKGQVGLSVTAEVFEIKPSLNVVELRKSYGDSCLYRQLYERLLKDVGTSSPEQEIVT
With B1 the binding (GUS-cLUC) was “no binding”, the binding [1] was “no binding” and the binding (PYL12-cLUC (Arabidopsis)) was “no binding”. For the same binder, the binding (PYL13-cLUC (Arabidopsis)) was “no binding”, the binding (PYL2-cLUC (Arabidopsis)) was “binds” and the binding (PYL3-cLUC (Arabidopsis)) was “binds”. For the same binder, the binding (PYL5-cLUC (Arabidopsis)) was “binds”, the binding (PYL6-cLUC (Arabidopsis)) was “binds” and the binding (PYL7-cLUC (Arabidopsis)) was “no binding”. The binding (PYL8-cLUC (Arabidopsis)) was “no binding”.
